Data published in paper PMC4336329 (PLoS ONE, 2015).
About 14,000 (4.5%) of roughly 310,000 compounds showed an effect of 50% or more. Effects have a minus sign here. The list shows a part of the results.

target: human ether-à-go-go-related gene (hERG) potassium channel (human, UniProt Q12809); assay: primary screen, population patch clamp on CHO cells stably expressing hERG
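Also: peak tail current of the secondary pulse compared with the same well before compound.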

human ether-à-go-go-related gene (hERG) potassium channel, sequence (Q12809 whole entry, looked up): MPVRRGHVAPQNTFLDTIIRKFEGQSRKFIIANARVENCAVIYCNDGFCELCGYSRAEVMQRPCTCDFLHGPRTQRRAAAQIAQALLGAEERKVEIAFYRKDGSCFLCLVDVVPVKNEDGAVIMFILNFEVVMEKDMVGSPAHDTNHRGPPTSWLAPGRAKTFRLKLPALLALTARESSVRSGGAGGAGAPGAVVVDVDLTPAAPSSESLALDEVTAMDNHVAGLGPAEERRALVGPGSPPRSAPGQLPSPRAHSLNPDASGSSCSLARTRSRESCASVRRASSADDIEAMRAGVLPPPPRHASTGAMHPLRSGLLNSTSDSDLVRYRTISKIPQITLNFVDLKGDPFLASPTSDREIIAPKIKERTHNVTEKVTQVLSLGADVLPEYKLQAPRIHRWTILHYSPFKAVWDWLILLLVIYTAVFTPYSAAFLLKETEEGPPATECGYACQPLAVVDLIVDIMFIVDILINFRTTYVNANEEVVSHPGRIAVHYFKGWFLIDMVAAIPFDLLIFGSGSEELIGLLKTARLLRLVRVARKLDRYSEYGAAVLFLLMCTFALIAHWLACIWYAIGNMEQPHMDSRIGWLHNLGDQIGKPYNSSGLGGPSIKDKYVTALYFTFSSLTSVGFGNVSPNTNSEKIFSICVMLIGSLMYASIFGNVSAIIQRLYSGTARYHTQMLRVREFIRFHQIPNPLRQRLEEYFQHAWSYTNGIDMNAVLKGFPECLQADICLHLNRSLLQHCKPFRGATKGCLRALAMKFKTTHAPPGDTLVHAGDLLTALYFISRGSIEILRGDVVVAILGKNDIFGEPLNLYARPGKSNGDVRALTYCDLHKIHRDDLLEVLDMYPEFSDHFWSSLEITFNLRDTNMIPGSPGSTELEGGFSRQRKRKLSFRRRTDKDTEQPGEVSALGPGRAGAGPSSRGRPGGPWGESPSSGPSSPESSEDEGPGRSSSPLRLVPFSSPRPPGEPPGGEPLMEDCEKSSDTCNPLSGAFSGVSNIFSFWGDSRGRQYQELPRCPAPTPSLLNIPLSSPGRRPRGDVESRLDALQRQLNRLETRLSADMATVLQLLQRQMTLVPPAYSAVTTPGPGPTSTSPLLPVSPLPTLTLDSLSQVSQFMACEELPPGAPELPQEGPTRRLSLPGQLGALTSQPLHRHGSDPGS

| SMILES | hERG current change (%, negative = inhibition) at 10uM [%] |
| --- | --- |
| Cc1cc(-c2ccccc2)c2c3c(c(-c4ccccc4)n2n1)c(=O)n(C)c(=O)n3C | -2.93 |
| CCc1ccc2[nH]c(=O)c(-c3ccccc3)c(O)c2c1 | 17.5 |
| COc1ccc(C(C)=O)cc1CSc1nc2cc(C(=O)O)ccc2c(=O)n1Cc1ccccc1 | 12.7 |
| Cc1cc(C)nc(N2N=C(C(F)(F)F)CC2=O)n1 | 1.13 |
| Cc1ccc(NC(=O)CNC(=O)c2cccc(Cl)c2)nc1 | 6.68 |
| Cc1c(C(=O)O)oc2c3c(ccc12)OCCO3 | 8.12 |
| CC(C)CCN(C(=O)c1csnn1)C(C(=O)NC1CCCC1)c1ccc(F)cc1 (centres unmarked) | -20.4 |
| Cn1cc(/C=N/NC(=O)c2cccc([N+](=O)[O-])c2)c2ccccc21 | 14.8 |
| CCC1=C/C(=C\c2ccc3c(c2)OCO3)C(=O)S1 | 11.1 |
| Cn1c(SCCCC(=O)c2ccc(Br)cc2)nnc1-c1ccncc1 | -70.2 |
| Cc1ccc(-n2c(C)cc(C(=O)CN3C(=O)C(=O)N(C4CCCC4)C3=O)c2C)cc1 | 8.15 |
| COCCN(C(=O)CSc1nc(N)cc(=O)[nH]1)c1c(N)n(Cc2ccccc2)c(=O)[nH]c1=O | 1.93 |
| Cc1ccc2c(c1)OC(=O)CC2c1ccccc1 (centres unmarked) | -6.26 |
| Cc1ccc(NC(=O)Cn2nnc(C(=O)NCc3cccs3)c2N)cc1F | 19.1 |
| COC(=O)c1cc2ccccc2c(-c2c(OC)c(C(=O)OC)cc3ccccc23)c1OC | -8.66 |
| S=c1[nH]nc(-c2cccnc2)n1-c1ccc2c(c1)OCCO2 | 13.2 |
| COc1cccc2cc(S(=O)(=O)c3ccccc3)c(=Nc3ccc4c(c3)OCCO4)oc12 | 3.79 |
| O=C(Nc1ccc(-c2ccc3nncn3n2)cc1)c1ccc(Br)o1 | -9.75 |
| O=C(N/N=C/c1cc(Br)ccc1OC(=O)c1ccc(Br)cc1)c1ccncc1 | -1.47 |
| O=C(Nc1ccc(F)cc1)c1cccnc1 | 4.76 |
| C[C@H]1CC[C@]2(O[C@H](CCO)C[C@@H](O)[C@@H]2O)O1 | 2.21 |
| CC(Sc1ccc(Cl)cc1)C(=O)Nc1ccccc1C(=O)N1CCOCC1 (centres unmarked) | 0.248 |
| Cc1ccc(CCNC(=O)CN(c2cc(C)cc(C)c2)S(=O)(=O)c2c(C)noc2C)cc1 | 23 |

| SMILES | hERG current change (%, negative = inhibition) at 10uM [%] |
| --- | --- |
| CCC(C)(C(=O)NC1CCCCC1)N(Cc1ccco1)C(=O)CC1NC(=O)NC1=O (centres unmarked) | 5.88 |
| C/C(N)=C(/C#N)C(=O)COC(=O)CNS(=O)(=O)c1ccc(F)c(F)c1F | 16.2 |
| CCCOc1ccc(C(=O)NCCN2CCOCC2)cc1.Cl | 11.1 |
| Cc1ccc(S(=O)(=O)N2CCCCC2)cc1C(=O)NCCN1CCOCC1 | -0.54 |
| Oc1ccc(Cl)cc1/C=N/c1nc2ccccc2[nH]1 | 11.7 |
| c1ccc(Nc2nnc(-c3cccc4ccccc34)o2)cc1 | 6.85 |
| CCOC(=O)CSc1nc2cc(C(=O)NCc3ccco3)ccc2c(=O)n1C1CCCCC1 | 6.93 |
| Cc1c(C)c2ccc(O[C@@H]3O[C@H](CO)[C@@H](O)[C@H](O)[C@H]3O)c(C)c2oc1=O | 11.7 |
| Cc1nc(CC(C)C)cc(C(=O)N2CCCC(CNS(=O)(=O)c3cccs3)C2)n1 (centres unmarked) | -20.8 |
| Cc1ccccc1-c1cc(C(=O)O)nn1CC1CC(c2cccc([N+](=O)[O-])c2)=NO1 (centres unmarked) | 19.7 |
| CC(NC(=O)COC(=O)COc1cccc2c1OC(C)(C)C2)c1ccccc1 (centres unmarked) | 6.98 |
| S=c1[nH]ccn1-c1cccc(Cl)c1Cl | 25.7 |
| C/C(=N/NC(=O)C(=O)N/N=C(/C)c1ccccc1)c1ccccc1 | 57.2 |
| Nc1cc(N)nc(CS)n1 | 3.39 |
| CCOc1ncccc1C(=O)Nc1ccc(-c2cn3ccsc3n2)cc1 | 6 |
| COc1cc(C)c(S(=O)(=O)NCc2ccc3c(c2)OCO3)cc1C | -16.4 |
| CCCc1nc(-c2ccc(-c3ccc(F)cc3)cc2)no1 | 7.85 |
| Cn1cc(CN2CCN(c3ccccc3)CC2)c2ccccc21 | -54 |
| S=C(Nc1ccccc1)N1CCCN1c1ccccc1 | 27.5 |
| COc1ccccc1NS(=O)(=O)c1ccc(C)c(NC(=O)NCCCl)c1 | -14.2 |
| Cl.O=C(Cc1ccc(Cl)cc1)NCCN1CCCC1 | -21.9 |
| Cc1ccccc1NC(=O)CSCCO | 12.7 |
| COCCCNC(=O)c1c[nH]c2ccc(S(=O)(=O)N3CCC4(CC3)OCCO4)cc2c1=O | 19 |

| SMILES | hERG current change (%, negative = inhibition) at 10uM [%] |
| --- | --- |
| O=C(CCN1C(=O)c2ccccc2C1=O)Nc1ccc(-c2nc3ccccc3s2)cc1 | 25 |
| Cc1ccccc1NCC(=O)N/N=C\c1ccc2c(c1)OCO2 | -0.637 |
| Cc1ccc(-c2cc(C(=O)O)n[nH]2)o1 | 8.06 |
| CC(=O)/C(N=Nc1ccc(SC(F)F)cc1)=C(\C)O | -10.5 |
| CCOC(=O)c1c(C)[nH]c(C(=O)/C(C#N)=C/c2ccc(OC(F)F)c(OC)c2)c1C | 15.6 |
| COc1ccccc1N1CCN(Cc2ccc(OC)c(OC)c2OC)CC1 | -35.8 |
| CCNC(=O)COC(=O)/C=C/c1c(C)nn(Cc2cccc(OC)c2)c1Cl | 12 |
| CC(Cc1cccs1)NC(=S)Nc1ccc(Cl)cc1 (centres unmarked) | 14.6 |
| CN(C(=O)CSc1ccccc1C(=O)O)C1CCCCC1 | -42.7 |
| CCOCCCNC(=O)CSCc1nc(-c2ccc(SC)cc2)oc1C | -10.3 |
| O=C(O)c1cc(Oc2ccc(C(F)(F)F)cc2Cl)ccc1[N+](=O)[O-] | 23.9 |
| Cc1nc(Oc2ccc(Cl)cc2)c2oc3ccccc3c2n1 | -0.241 |
| O=C(Cc1cc(=O)[nH]c(=O)[nH]1)NCCN1CCOCC1 | 9.37 |
| CN(C)S(=O)(=O)c1cccc(NC(=O)c2ccc(N3CCOCC3)c([N+](=O)[O-])c2)c1 | -23.3 |
| Br.C=CCN1CCc2c(cc(O)c(O)c2Cl)C(c2ccccc2)C1 (centres unmarked) | -41 |
| c1csc(-c2cn3ccc4ccccc4c3n2)c1 | 6.29 |
| CCOC(=O)C1CCN(C(=O)c2ccc3c(c2)S(=O)(=O)c2ccccc2C3=O)CC1 | -76.6 |
| CCOc1ccc(CCNC(=O)CN2C(=O)CCSc3ccccc32)cc1OCC | 7.81 |
| COc1ccc(Cl)cc1C(=O)NCc1cnn(C)c1C | -3.69 |
| COc1ccc(NC(=O)c2ccc(OC)c(S(=O)(=O)N3CCCCC3C)c2)cn1 (centres unmarked) | -5.77 |
| COc1cc(C(C(=O)NC2CCCC2)N(Cc2ccco2)C(=O)c2snc(C(N)=O)c2N)cc(OC)c1OC (centres unmarked) | -8.38 |
| CSc1ncccc1C(=O)Nc1cccc(C)n1 | 9.89 |
| O=C(NNC(=O)c1ccccc1OCc1ccc(F)cc1)c1ccccc1O | 14.6 |

| SMILES | hERG current change (%, negative = inhibition) at 10uM [%] |
| --- | --- |
| O=C(COC(=O)c1cc2ccccc2o1)NCc1ccco1 | 0.657 |
| O=CC1=C(N2CCOCC2)/C(=C\c2ccccc2)CC1 | 16.6 |
| COc1ccc2c(c1)c(=O)oc1cc(OCC(=O)N3CCCC(C)C3)ccc12 (centres unmarked) | -4.74 |
| COc1ccc(S(=O)(=O)N2CCOC2CNC(=O)C(=O)NCc2ccc(F)cc2)cc1OC (centres unmarked) | -1.87 |
| Cc1cc(NS(=O)(=O)c2cccs2)no1 | -3.03 |
| CCCS(=O)(=O)c1nc(S(=O)(=O)c2ccc(Cl)cc2)c(N2CCC(O)CC2)s1 | -46.9 |
| CCCOc1ccc(C(=O)CCNc2ccc(C)c(Cl)c2)cc1 | -2.42 |
| Cc1ccc2c(=O)cc(C(=O)NC3CCS(=O)(=O)C3)oc2c1 (centres unmarked) | 15.5 |
| CC(=O)c1cc(CN2CCN(CC=C(C)C)C(CCO)C2)cs1 (centres unmarked) | 16.3 |
| C=CCSc1[nH]c(=O)cc(C)c1C(N)=O | 9.75 |
| CCOC(=O)c1sc2nc(C)nc(SCC(N)=O)c2c1C | 13.5 |
| CCOC(=O)c1csc(NC(=O)CSc2nnnn2-c2cccc(OC)c2)n1 | 6.64 |
| CCc1nnc(NC(=O)CSc2nnc(Cc3cc(=O)[nH]c(=O)[nH]3)n2-c2cccc(OC)c2)s1 | 24.9 |
| O=C(Nc1cccc2c1[nH]c1ccccc12)C(F)(F)F | -15.5 |
| COCCNC(=O)c1onc(CSc2cccc(C)c2)c1C(=O)O | 2.32 |
| O=C(CSc1nc2ccccc2c(=O)[nH]1)Nc1nc(-c2ccc(Br)cc2)cs1 | 14.8 |
| CC1CCN(C2(O)C(=O)Nc3ccc([N+](=O)[O-])cc32)CC1 (centres unmarked) | -0.363 |
| COc1ccc(C2C(C(=O)N3CCN(c4ccccn4)CC3)CCC(=O)N2c2ccc(OC)cc2)cc1 (centres unmarked) | -47.3 |
| CCOc1ccccc1C(=O)Nc1ccc(NC(=O)c2ccccc2)cc1 | 12.7 |
| O=C(CN1CCN(Cc2ccc(F)cc2Cl)CC1)NCc1ccccc1 | -23.2 |
